The supplement of paper PMC11348887
Values joined by “and” are separate entries in the source; they are usually repeats but may differ in a detail not shown here. Equal entries are not always repeated. Structures can show the parent of a compound that is named as a salt. The list shows a part of the results. Cut-off read from the data, not from the text of the source: active = -2 or less and inactive = the rest. Most values come without repeats; read them as rough.

Test system: hPSC-derived cortical neurons (WA09)
Assay: nuclei number (viability) z-score; higher = more surviving cells
Conditions: 5 µM; treatment: days 7-14 after plating, readout day 21
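Note: nuclei counted from DAPI counterstain by automated high-content image analysis, four fields per well at ×20 in 384-well plates, with sequential b-score then z-score normalization.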

Row | SMILES | nuclei number (z-score)
1 | C[C@H]1CNCCCN1S(=O)(=O)c1cccc2cncc(F)c12 [Ripasudil (K-115) hydrochloride dihydrate] | inactive: 1.17
2 | CC(=O)O[C@]1(C(C)=O)CC[C@H]2[C@@H]3C[C@H](C)C4=CC(=O)CC[C@]4(C)[C@H]3CC[C@@]21C [Medroxyprogesterone acetate] | inactive: 0.226
3 | O=C(O)c1cc(-c2ccccc2)nc2ccccc12 [Cinchophen] | inactive: 0.364
4 | COc1cc2c(Oc3ccc4[nH]c(C)cc4c3F)ncnc2cc1OCCCN1CCCC1 [Cediranib (AZD2171)] | inactive: -0.897
5 | CCOC(=O)Nc1cc(-c2ccc(C)c(NS(C)(=O)=O)c2)nn2c(C)nnc12 [Bromosporine] | inactive: -0.921
6 | Cc1cc2c(F)c(Oc3ncnn4cc(OC[C@@H](C)OC(=O)[C@H](C)N)c(C)c34)ccc2[nH]1 | inactive: 0.669
7 | C[C@@H]1CCN(C(=O)CC#N)C[C@@H]1N(C)c1ncnc2[nH]ccc12 | inactive: 3.86 and inactive: 4.01
8 | C#CC[C@H](c1nc2cc(Cl)ccc2c(=O)n1Nc1ccccc1)N(CCCN)C(=O)c1cccc(Cl)c1F | active: -5.5
9 | O=S(=O)(O)NC1CCCCC1 [Cyclamic  acid] | inactive: 0.721
10 | O=C(NCCO)c1cccc(-c2cc(Nc3ccc(OC(F)(F)F)cc3)ncn2)c1 | inactive: 0.263
11 | COCC[n+]1c2c(n(Cc3cnccn3)c1C)C(=O)c1ccccc1C2=O [YM155 (Sepantronium Bromide)] | inactive: -1.89
12 | COc1ccc([C@]2(C#N)CC[C@@H](C(=O)O)CC2)cc1OC1CCCC1 [Cilomilast] | inactive: -0.00162
13 | CCCOc1ccn2c(C(C)=O)cc(-c3ccccc3S(C)(=O)=O)c2c1 | inactive: 1.15
14 | CC(/C=C1\SC(=S)N(CC(=O)O)C1=O)=C\c1ccccc1 [Epalrestat] | inactive: -0.416
15 | O=C1c2ccccc2C(=O)c2c1ccc(O)c2O [Alizarin] | inactive: 0.67
16 | Cc1nc(=O)c2cc(CN(C)c3ccc(C(=O)N[C@@H](CCC(=O)O)C(=O)O)s3)ccc2[nH]1 [Raltitrexed] | inactive: -0.376
17 | CN1CCN(CCCN2c3ccccc3Sc3ccc(Cl)cc32)CC1 [Prochlorperazine dimaleate salt] | active: -7.38
18 | CC(=O)[C@]1(O)Cc2c(O)c3c(c(O)c2[C@@H](O[C@H]2C[C@H](N)[C@H](O)[C@H](C)O2)C1)C(=O)c1ccccc1C3=O [Idarubicin HCl] | active: -5.69
19 | O=c1oc2ccccc2c(O)c1Cc1c(O)c2ccccc2oc1=O [Dicoumarol] | inactive: 0.517
